Experimental data published in PubChem BioAssay (NCI).
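Values below derive from 48-hour exposures of cells grown in 96-well plates, with endpoints linearly interpolated between the two concentrations bracketing the appropriate inhibition level. GI50 marks 50% less growth.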 Certain results were filed several times, with different values. The list is limited to them. An entry can have further records. For some of these results: A record mostly stands for its own series of concentrations, which the source does not state; a value can be the end of its range. What stands in brackets tells the records apart. A, B and so on number the origins entry by entry. For some of these results: The values listed for one entry repeat one measurement (runs, samples, wells, individuals or studies).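 TGI: total growth inhibition.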

Experiments:
Assay in all cases: DTP human tumour cell line panel, 48 h
BT-549 breast = tested on: BT-549 breast
MCF7 breast = tested on: MCF7 breast
NCI-H226 lung = tested on: NCI-H226 lung
OVCAR-4 ovarian = tested on: OVCAR-4 ovarian
OVCAR-5 ovarian = tested on: OVCAR-5 ovarian
SK-MEL-5 melanoma = tested on: SK-MEL-5 melanoma
SR leukemia = tested on: SR leukemia
TK-10 renal = tested on: TK-10 renal
UO-31 renal = tested on: UO-31 renal
CCRF-CEM leukemia = tested on: CCRF-CEM leukemia
A549 NSCLC = tested on: A549 NSCLC
HCT-116 colon = tested on: HCT-116 colon
HCT-15 colon = tested on: HCT-15 colon
HL-60(TB) leukemia = tested on: HL-60(TB) leukemia
K-562 leukemia = tested on: K-562 leukemia
KM12 colon = tested on: KM12 colon
MDA-MB-435 = tested on: MDA-MB-435
NCI-H460 lung = tested on: NCI-H460 lung
RPMI-8226 leukemia = tested on: RPMI-8226 leukemia
SNB-75 CNS = tested on: SNB-75 CNS
U251 CNS = tested on: U251 CNS
786-0 renal = tested on: 786-0 renal
COLO 205 colon = tested on: COLO 205 colon
DU-145 prostate = tested on: DU-145 prostate
EKVX NSCLC = tested on: EKVX NSCLC
HOP-92 NSCLC = tested on: HOP-92 NSCLC
HT29 colon = tested on: HT29 colon
MDA-N = tested on: MDA-N
MOLT-4 leukemia = tested on: MOLT-4 leukemia
NCI-H23 lung = tested on: NCI-H23 lung
NCI/ADR-RES ovarian = tested on: NCI/ADR-RES ovarian
OVCAR-3 ovarian = tested on: OVCAR-3 ovarian
OVCAR-8 ovarian = tested on: OVCAR-8 ovarian
PC-3 prostate = tested on: PC-3 prostate
SF-295 CNS = tested on: SF-295 CNS
SF-539 CNS = tested on: SF-539 CNS
SK-MEL-2 melanoma = tested on: SK-MEL-2 melanoma
SK-MEL-28 melanoma = tested on: SK-MEL-28 melanoma
SK-OV-3 ovarian = tested on: SK-OV-3 ovarian
T-47D breast = tested on: T-47D breast
UACC-257 melanoma = tested on: UACC-257 melanoma
UACC-62 melanoma = tested on: UACC-62 melanoma
M14 melanoma = tested on: M14 melanoma
MDA-MB-231 breast = tested on: MDA-MB-231 breast

## COC(=O)[C@@H](C)C[C@H](Cc1ccccc1)NC(=O)c1csc([C@@H](C[C@H](C(C)C)N(C)C(=O)[C@@H](NC(=O)[C@H]2CCCN2C)C2CC2)OC(C)=O)n1
BT-549 breast
  TGI: 129 nM and < 2.5 nM
MCF7 breast
  GI50: 0.204 nM and 2.5 nM
NCI-H226 lung
  GI50: 433 nM and 2.5 nM
OVCAR-4 ovarian
  GI50: 4.44 nM and 1.3 µM
OVCAR-5 ovarian
  GI50: 43.3 nM and 2.5 nM
SK-MEL-5 melanoma
  TGI: 107 nM and < 2.5 nM
SR leukemia
  GI50: 0.163 nM and 2.5 nM
TK-10 renal
  GI50: 335 nM and 2.5 nM
UO-31 renal
  GI50: 25.7 nM and 2.5 nM

## C=C1c2nc3ccccc3n2C=C(c2ccc(Cl)cc2)N1c1ccc(OCCN2CCCCC2)cc1
CCRF-CEM leukemia
  TGI: > 45 µM and 2.32 µM
SR leukemia
  TGI: > 45 µM and 756 nM

## O=C1CC(CC(OCc2ccccc2)C(OCc2ccccc2)C(COCc2ccccc2)OCc2ccccc2)CC(=O)N1 (configuration not stated)
A549 NSCLC
  GI50: > 100 µM [sample A, 1 test] and 6.23 µM [sample B, 1 test]
CCRF-CEM leukemia
  GI50: > 100 µM [sample A, 1 test] and 6.17 µM [sample B, 1 test]
HCT-116 colon
  GI50: > 100 µM [sample A, 1 test] and 8.8 µM [sample B, 1 test]
HCT-15 colon
  GI50: > 100 µM [sample A, 1 test] and 6.99 µM [sample B, 1 test]
HL-60(TB) leukemia
  GI50: > 100 µM [sample A, 1 test] and 5.43 µM [sample B, 1 test]
K-562 leukemia
  GI50: > 100 µM [sample A, 1 test] and 5.77 µM [sample B, 1 test]
KM12 colon
  GI50: 15.8 nM [sample A, 1 test] and 6.46 µM [sample B, 1 test]
MCF7 breast
  GI50: > 100 µM [sample A, 1 test] and 7.68 µM [sample B, 1 test]
MDA-MB-435
  GI50: > 100 µM [sample A, 1 test] and 7.61 µM [sample B, 1 test]
NCI-H460 lung
  GI50: > 100 µM [sample A, 1 test] and 9.28 µM [sample B, 1 test]
OVCAR-4 ovarian
  GI50: > 100 µM [sample A, 1 test] and 9.54 µM [sample B, 1 test]
RPMI-8226 leukemia
  GI50: > 100 µM [sample A, 1 test] and 6.56 µM [sample B, 1 test]
SNB-75 CNS
  GI50: > 100 µM [sample A, 1 test] and 8.13 µM [sample B, 1 test]
SR leukemia
  GI50: > 100 µM [sample A, 1 test] and 6.84 µM [sample B, 1 test]
U251 CNS
  GI50: > 100 µM [sample A, 1 test] and 4.54 µM [sample B, 1 test]
UO-31 renal
  TGI: > 100 µM [sample A, 1 test] and 5.64 µM [sample B, 1 test]

## C[C@H]1CCC/C=C/[C@@H]2C[C@H](O)C[C@H]2[C@H](O)/C=C/C(=O)O1
786-0 renal
  TGI: 31.4 nM and 391 nM
BT-549 breast
  GI50: < 10 nM [sample A, 1 test] and 190 nM [sample B, 1 test] and 92.9 nM [sample B, mean of 2 tests]
  TGI: 86 nM [sample A, 1 test] and > 100 µM [sample B, 1 test] and 6.34 µM [sample B, mean of 2 tests]
COLO 205 colon
  GI50: < 10 nM [sample A, 1 test] and 110 nM [sample B, mean of 2 tests]
DU-145 prostate
  TGI: > 100 µM [sample A, mean of 2 tests] and 15 µM [sample B, 1 test] and 914 nM [sample B, mean of 2 tests]
EKVX NSCLC
  TGI: > 100 µM [sample A, mean of 2 tests] and 2.73 µM, 5.35 µM [sample B, mean of 3 tests]
HCT-15 colon
  TGI: > 100 µM [sample A] and 1.02 µM, 2.33 µM [sample B]
HOP-92 NSCLC
  TGI: > 100 µM [sample A] and 2.64 µM, 356 nM [sample B]
HT29 colon
  TGI: 13.4 nM [sample A] and 825 nM, 1.09 µM [sample B]
K-562 leukemia
  TGI: > 100 µM [sample A] and 8.49 µM, > 100 µM [sample B]
KM12 colon
  TGI: < 16 nM [sample A] and 24.8 nM, 380 nM [sample B]
MCF7 breast
  TGI: 57.2 nM [sample A] and 67 nM, 1.77 µM [sample B]
MDA-MB-435
  TGI: > 100 µM [sample A, mean of 2 tests] and 899 nM [sample B, mean of 2 tests]
MDA-N
  TGI: > 100 µM [sample A] and 9.45 µM, 11.1 µM [sample B]
MOLT-4 leukemia
  TGI: 519 nM [sample A, mean of 2 tests] and > 57.9 µM [sample B, mean of 3 tests] and 927 nM [sample B, mean of 4 tests]
NCI-H23 lung
  TGI: 210 nM and 21.6 µM
NCI-H460 lung
  TGI: > 100 µM [sample A, mean of 2 tests] and > 13.5 µM [sample B, mean of 3 tests] and 325 nM [sample B, mean of 4 tests]
NCI/ADR-RES ovarian
  TGI: > 100 µM [sample A] and 121 nM, > 100 µM [sample B]
OVCAR-3 ovarian
  TGI: 1.65 µM [sample A] and 146 nM, 792 nM [sample B]
OVCAR-5 ovarian
  TGI: > 100 µM [sample A] and 726 nM, 12.6 µM [sample B]
OVCAR-8 ovarian
  TGI: > 100 µM [sample A] and 812 nM, 3.74 µM [sample B]
PC-3 prostate
  TGI: > 87.4 µM [sample A, mean of 2 tests] and 8.89 µM, > 100 µM [sample B, mean of 2 tests]
RPMI-8226 leukemia
  TGI: > 57.7 µM [mean of 3 tests] and 3.45 µM [mean of 4 tests]
SF-295 CNS
  TGI: 3.69 µM [sample A, mean of 2 tests] and > 100 µM [sample B, mean of 3 tests]
SF-539 CNS
  TGI: > 100 µM [sample A] and 2.14 µM, > 51.8 µM [sample B]
SK-MEL-2 melanoma
  TGI: > 100 µM [sample A] and 263 nM, 279 nM [sample B]
SK-MEL-28 melanoma
  TGI: > 100 µM [sample A] and 1.62 µM, > 8.85 µM [sample B]
SK-OV-3 ovarian
  TGI: > 100 µM [sample A] and 880 nM, > 100 µM [sample B]
SNB-75 CNS
  TGI: < 10 nM [sample A] and 2.54 µM, 1.31 µM [sample B]
SR leukemia
  TGI: 500 nM and > 100 µM
T-47D breast
  TGI: 8.96 µM [sample A] and 383 nM, 95.2 µM [sample B]
UACC-257 melanoma
  TGI: > 64 µM [sample A] and 104 nM, 1.37 µM [sample B]
UACC-62 melanoma
  TGI: 4.59 µM [sample A] and 54.3 nM [sample B]

## CN1CCN(CCCN2c3ccccc3Sc3ccc(Cl)cc32)CC1
HT29 colon
  TGI: 67.6 µM [sample A, 1 test] and 6.62 µM [sample B, 1 test]
M14 melanoma
  TGI: 56.4 µM [sample A, 1 test] and 2.47 µM [sample B, 1 test]
MDA-MB-231 breast
  TGI: 64.3 µM [sample A, 1 test] and 6.24 µM [sample B, 1 test]
SK-MEL-28 melanoma
  TGI: 56.5 µM [sample A, 1 test] and 2.34 µM [sample B, 1 test]
SNB-75 CNS
  TGI: 80.4 µM [sample A, 1 test] and 7.33 µM [sample B, 1 test]
UACC-257 melanoma
  TGI: 62.7 µM [sample A, 1 test] and 2.04 µM [sample B, 1 test]
UACC-62 melanoma
  TGI: 64.8 µM [sample A, 1 test] and 1.83 µM [sample B, 1 test]
